Reference: the supplement of paper PMC4967469
pIC50: −log10 of the molar value. The IC50 comes from the fitted curve, where viability falls to half of the control; where the fit passes the top or lowest dose, that dose stands as a limit. The AUC spans the tested range (256-fold, ending at the top dose) of the same fit: 1 means no effect, lower means more sensitive. For some assays here: The top dose, if marked as inferred, was derived from the fitted curves, not read from the paper.

How the values were obtained:
Assay in all cases: Viability of human cancer cell lines after 72 h of drug (GDSC screen)
Bexarotene = compound: C=C(c1ccc(C(=O)O)cc1)c1cc2c(cc1C)C(C)(C)CCC2(C)C [Bexarotene]; settings: top dose 8 µM
Method: (§1)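 Human cancer cell lines in 384-well plates, medium with 10% serum, drug for 72 h over a 256-fold dose range (nine 2-fold or five 4-fold steps up to the top dose). Adherent lines were fixed and stained with the nucleic acid dye Syto60, suspension lines read with resazurin; signal relative to control wells, capped at 0 and 100%. One two-parameter sigmoid per drug and line, fitted in a mixed model over all curves with the slope shared within a line.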

NPK76-II-72-1 = compound: COc1cc(C(=O)NC2CCN(C)CC2)ccc1Nc1ncc2c(n1)N(C1CCCC1)C(C)CC(=O)N2C [NPK76-II-72-1]; settings: top dose 10.24 µM; top dose inferred
Method: as §1

Etoposide = compound: COc1cc([C@@H]2c3cc4c(cc3[C@@H](O[C@@H]3O[C@@H]5CO[C@@H](C)O[C@H]5[C@H](O)[C@H]3O)[C@H]3COC(=O)[C@H]23)OCO4)cc(OC)c1O [Etoposide]; settings: top dose 16 µM
Method: as §1

YK 4-279 = compound: COc1ccc(C(=O)CC2(O)C(=O)Nc3c(Cl)ccc(Cl)c32)cc1 [YK 4-279]; settings: top dose 10 µM
Method: as §1

BMS-345541 = compound: Cc1ccc2nc(NCCN)c3ncc(C)n3c2c1 [BMS-345541]; settings: top dose 16 µM
Method: as §1

AZD7762 = compound: NC(=O)Nc1cc(-c2cccc(F)c2)sc1C(=O)N[C@H]1CCCNC1 [AZD7762]; settings: top dose 2 µM
Method: as §1

GSK-650394 = compound: O=C(O)c1ccc(-c2c[nH]c3ncc(-c4ccccc4)cc23)cc1C1CCCC1 [GSK-650394]; settings: top dose 16 µM; top dose inferred
Method: as §1

XAV 939 = compound: Oc1nc(-c2ccc(C(F)(F)F)cc2)nc2c1CSCC2 [XAV 939]; settings: top dose 5 µM; top dose inferred
Method: as §1

| Cell Line | AUC (Bexarotene) | pIC50 (Bexarotene) | AUC (NPK76-II-72-1) | pIC50 (NPK76-II-72-1) | AUC (Etoposide) | pIC50 (Etoposide) | AUC (YK 4-279) | pIC50 (YK 4-279) | AUC (BMS-345541) | pIC50 (BMS-345541) | AUC (AZD7762) | pIC50 (AZD7762) | AUC (GSK-650394) | pIC50 (GSK-650394) | AUC (XAV 939) | pIC50 (XAV 939) |
| --- | --- | --- | --- | --- | --- | --- | --- | --- | --- | --- | --- | --- | --- | --- | --- | --- |
| LB373-MEL-D (melanoma, adherent) | 0.973 | < 5.10 | 0.948 | < 4.99 | 0.948 | < 4.80 | 0.892 | < 5.00 | 0.983 | < 4.80 | 0.988 | < 5.70 | 0.989 | < 4.80 | 0.989 | < 5.30 |
| LB2241-RCC (kidney, adherent) | 0.959 | < 5.10 | 0.98 | < 4.99 | 0.858 | 4.80 | 0.714 | 5.56 | 0.98 | < 4.80 | 0.497 | 6.91 | 0.794 | 5.08 | 0.945 | < 5.30 |
| LC4-1 (lymphoblastic leukaemia, suspension) | 0.827 | 5.25 | 0.628 | 5.82 | 0.672 | 5.50 | 0.734 | 5.50 | 0.787 | 5.11 | 0.924 | < 5.70 | 0.935 | < 4.80 | 0.98 | < 5.30 |
| LCLC-97TM1 (large cell lung carcinoma, adherent) | 0.914 | < 5.10 | 0.643 | 5.78 | 0.416 | 6.24 | 0.709 | 5.59 | 0.886 | < 4.80 | 0.646 | 6.48 | 0.563 | 5.82 | 0.963 | < 5.30 |
| LCLC-103H (large cell lung carcinoma, adherent) | 0.921 | < 5.10 | 0.806 | 5.34 | 0.462 | 6.10 | 0.797 | 5.38 | 0.898 | < 4.80 | 0.818 | 6.00 | 0.695 | 5.48 | 0.99 | < 5.30 |
| LK-2 (lung squamous cell carcinoma, adherent) | 0.933 | < 5.10 | 0.707 | 5.63 | 0.563 | 5.83 | 0.64 | 5.83 | 0.923 | < 4.80 | 0.873 | 5.76 | 0.988 | < 4.80 | 0.972 | < 5.30 |
| LN-18 (glioma, adherent) | 0.933 | < 5.10 | 0.994 | < 4.99 | 0.555 | 5.86 | 0.642 | 5.85 | 0.973 | < 4.80 | 0.674 | 6.47 | 0.548 | 5.88 | 0.993 | < 5.30 |
| LN-405 (glioma, adherent) | 0.982 | < 5.10 | 0.983 | < 4.99 | 0.935 | < 4.80 | 0.907 | < 5.00 | 0.896 | < 4.80 | 0.853 | < 5.70 | 0.976 | < 4.80 | 0.975 | < 5.30 |
